Source: the supplement of paper PMC10369915
The other results are listed elsewhere or left out. No stated cut-off is given here; in the data, active = 3.2 or more and inactive = the rest. The signal is at background level for most entries.

B1: ALOX12B_Y318_YF (peptide)
chain: IFLADYRIMEG
B2: ALPK2_Y1975 (peptide)
chain: LIQRNYKLAAQ
B3: ALPL_Y117_A116T (peptide)
chain: GTATTYLCGVK
B4: ALX3_Y181_R183W_YF (peptide)
chain: HFPDVYAWEQL
B5: AMH_Y195_R194C (peptide)
chain: SRDTCYLVLAV
B6: ANG_Y38_Q36L (peptide)
chain: FLTLHYDAKPQ
B7: ANGPTL3_Y417 (peptide)
chain: NLNGKYNKPRA
B8: ANGPTL3_Y417_N418Y_YF (peptide)
chain: NLNGKYFKPRA
B9: ANGPTL3_Y417_Y417C (peptide)
chain: NLNGKCNKPRA
B10: ANGPTL7_Y145 (peptide)
chain: RISGVYKLPPD
B11: ANK1_Y1073 (peptide)
chain: RLCQDYDTIGP
B12: ANK1_Y624 (peptide)
chain: RSLLQYGGSAN
B13: ANK1_Y735 (peptide)
chain: KTKLGYSPLHQ
B14: ANK1_Y735_L733I (peptide)
chain: KTKIGYSPLHQ
B15: ANK2_Y3907 (peptide)
chain: KIIRRYVSSEG
B16: ANOS1_Y259 (peptide)
chain: RPSRWYQFRVA
B17: ANPEP_Y600_I603M (peptide)
chain: RQQQDYWLMDV
B18: ANTXR2_Y380_Y381C (peptide)
chain: TVDASYCGGRG
B19: ANTXR2_Y380_YF (peptide)
chain: TVDASYFGGRG

Molecular target: SHP2 C-SH2 domain E139D
Assay: enrichment score (SH2-bound / input frequency) (ratio); bacterial display of known human phosphotyrosine sites (pTyr-Var adds point mutants) read by sequencing; higher = stronger binding; tyrosines were phosphorylated by kinases first
Settings: peptide library: pTyr-Var
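Further: displayed peptides selected on beads carrying the immobilized SH2 domain, with library peptides lacking any tyrosine serving as negative controls.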

Enrichment score, inactive:
B1 2.35, B2 0.679, B3 0.704, B4 1.1, B5 1.31, B6 2.22, B7 1.27, B8 1.37, B9 0.754, B10 0.726, B11 1.21, B12 1.81, B13 1.14, B14 0.75, B15 0.424, B16 0.245, B17 0.92, B18 0.66, B19 0.766

Molecular target: SHP2 C-SH2 domain wild-type
Assay: as above
Settings: peptide library: pTyr-Var

Enrichment score, inactive:
B1 2.06, B2 0.527, B3 0.656, B4 1.17, B5 1.32, B6 1.78, B7 1.24, B8 1.09, B9 0.836, B10 0.887, B11 1.31, B12 0.834, B13 1.09, B14 0.803, B15 0.411, B16 0.265, B17 0.743, B18 0.621, B19 0.66

Molecular target: SHP2 N-SH2 domain L43F
Assay: as above
Settings: peptide library: pTyr-Var

Enrichment score, inactive:
B1 2.7, B2 0.62, B3 0.68, B4 1.18, B5 1.06, B6 1.71, B7 1.16, B8 1.11, B9 0.972, B10 0.815, B11 1.18, B12 0.753, B13 1.14, B14 0.774, B15 0.273, B16 0.231, B17 0.836, B18 0.828, B19 0.764

Molecular target: SHP2 N-SH2 domain T42A
Assay: as above
Settings: peptide library: pTyr-Var

Enrichment score, inactive:
B1 2.24, B2 0.438, B3 0.682, B4 1.14, B5 1.29, B6 1.86, B7 1.15, B8 1.02, B9 0.72, B10 0.72, B11 1.03, B12 0.79, B13 0.809, B14 0.569, B15 0.351, B16 0.482, B17 0.796, B18 0.535, B19 0.62

Molecular target: SHP2 N-SH2 domain T52S
Assay: as above
Settings: peptide library: pTyr-Var

Enrichment score, inactive:
B1 1.79, B2 0.545, B3 0.564, B4 1.49, B5 0.985, B6 2.16, B7 0.98, B8 1.24, B9 0.828, B10 0.901, B11 0.671, B12 0.909, B13 1.08, B14 0.792, B15 0.39, B16 0.183, B17 0.76, B18 0.574, B19 0.767

Molecular target: SHP2 N-SH2 domain wild-type
Assay: as above
Settings: peptide library: pTyr-Var

Enrichment score, inactive:
B1 2.15, B2 0.475, B3 1.05, B4 1.08, B5 1.62, B6 1.56, B7 1.4, B8 1.24, B9 0.768, B10 0.917, B11 1.61, B12 1.04, B13 1.19, B14 1.01, B15 0.383, B16 0.343, B17 0.964, B18 0.703, B19 0.84
